Laboratory results as given in the supplement of paper PMC4604168 (melanoma cell lines).
This is one part of the list. Single values are uncertain, as repeats are few or missing.

Key:
Test in all cases: cell count relative to DMSO control; melanoma cells; higher = more viable cells
Details in all cases: library dose: standard library concentration; 72 h
G361 = system: G361
IPC-298 = system: IPC-298
IST-MEL1 = system: IST-MEL1
LB2518-MEL = system: LB2518-MEL
LOXIMVI = system: LOXIMVI
MEL-HO = system: MEL-HO
MZ2-MEL = system: MZ2-MEL
MeWo = system: MeWo
RPMI7951 = system: RPMI7951
RVH-421 = system: RVH-421
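Note: cells treated in 1,536-well plates, then fixed and DAPI-stained, with nuclei counted from automated high-throughput microscope images.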

SMILES	cell count (G361) [%]	cell count (IPC-298) [%]	cell count (IST-MEL1) [%]	cell count (LB2518-MEL) [%]	cell count (LOXIMVI) [%]	cell count (MEL-HO) [%]	cell count (MZ2-MEL) [%]	cell count (MeWo) [%]	cell count (RPMI7951) [%]	cell count (RVH-421) [%]
Cc1cn(-c2cc(NC(=O)c3ccc(C)c(Nc4nccc(-c5cccnc5)n4)c3)cc(C(F)(F)F)c2)cn1 [nilotinib] + CNC(=O)c1cc(Oc2ccc(NC(=O)Nc3ccc(Cl)c(C(F)(F)F)c3)cc2)ccn1 [sorafenib] (first compound 1 µM, partner dose 2 µM)	75.6	78	92.5	76.7	102	79.2	71.3	74.8	55.7	173
COc1ccc(C2=N[C@@H](c3ccc(Cl)cc3)[C@@H](c3ccc(Cl)cc3)N2C(=O)N2CCNC(=O)C2)c(OC(C)C)c1 [Nutlin-3] + CN1CCN(c2ccc3nc(-c4c(N)c5c(F)cccc5[nH]c4=O)[nH]c3c2)CC1 [Dovitinib] (first compound 0.5 µM, partner dose 0.5 µM)	74	82.1	103	50.8	104	71.9	51.3	65.2	71.9	97.4
Cc1cn(-c2cc(NC(=O)c3ccc(C)c(Nc4nccc(-c5cccnc5)n4)c3)cc(C(F)(F)F)c2)cn1 [nilotinib] + Nc1ccn([C@@H]2O[C@H](CO)[C@@H](O)C2(F)F)c(=O)n1 [gemcitabine] (first compound 1 µM, partner dose 0.002 µM)	92.8	67.5	61.3	86.8	140	86.3	124	70.9	95.4	81.1
Cn1c(=O)n(-c2ccc(C(C)(C)C#N)cc2)c2c3cc(-c4cnc5ccccc5c4)ccc3ncc21 + O=C(O)C(=O)Nc1sc2c(c1C(=O)O)CCNC2 [TCS401] (first compound 0.02 µM, partner dose 8.33333 µM)	68.4	87.7	79.2	86.6	82.7	73.9	88.2	58.9	63.1	72.4
CC(C)C[C@H](NC(=O)[C@H](Cc1ccccc1)NC(=O)c1cnccn1)B(O)O [Bortezomib] + Cc1nc(Nc2ncc(C(=O)Nc3c(C)cccc3Cl)s2)cc(N2CCN(CCO)CC2)n1 [dasatanib] (first compound 0.005 µM, partner dose 0.02 µM)	2.86	10	6.66	3.45	31.2	13.3	5.23	16.7	5.5	9.28
Cc1cc(Nc2cc(N3CCN(C)CC3)nc(/C=C/c3ccccc3)n2)n[nH]1 + O=C1NC(=O)/C(=C/c2ccc(-c3ccc(F)cc3O)o2)S1 [AS252424] (first compound 0.2 µM, partner dose 5 µM)	90.9	107	99	97.7	76.3	105	108	78.2	93.1	103
CC(C)C[C@H](NC(=O)[C@H](Cc1ccccc1)NC(=O)c1cnccn1)B(O)O [Bortezomib] + c1cc(-c2cnn3cc(-c4ccc(OCCN5CCCCC5)cc4)cnc23)ccn1 [Dorsomorphin] (first compound 0.005 µM, partner dose 2 µM)	1.15	5.87	12.4	1.97	18.9	31	3.7	7.85	7.21	4.92
COc1ccc(C2=N[C@@H](c3ccc(Cl)cc3)[C@@H](c3ccc(Cl)cc3)N2C(=O)N2CCNC(=O)C2)c(OC(C)C)c1 [Nutlin-3] + COc1ccc(COc2ccc(Cc3cnc(N)nc3N)cc2OC)cc1 [GW2580] (first compound 0.5 µM, partner dose 5 µM)	68.5	78.6	89.4	62.1	64.8	96.8	78.9	74	124	45.3
Cc1cn(-c2cc(NC(=O)c3ccc(C)c(Nc4nccc(-c5cccnc5)n4)c3)cc(C(F)(F)F)c2)cn1 [nilotinib] + Nc1ncn([C@H]2C[C@H](O)[C@@H](CO)O2)c(=O)n1 [decitabine] (first compound 1 µM, partner dose 0.5 µM)	93.5	79.3	91.8	88.7	95.3	91.5	110	86.1	96	96.2
Cc1cc(Nc2cc(N3CCN(C)CC3)nc(/C=C/c3ccccc3)n2)n[nH]1 + Cn1cc(/C=C2\C(=O)Nc3cccnc32)c2ccccc21 [GW441756] (first compound 0.2 µM, partner dose 2 µM)	74.3	78.1	93.7	74.3	87.5	84.9	71.1	72	70.5	71.8
Cn1c(=O)n(-c2ccc(C(C)(C)C#N)cc2)c2c3cc(-c4cnc5ccccc5c4)ccc3ncc21 + CCCS(=O)(=O)Nc1ccc(F)c(C(=O)c2c[nH]c3ncc(Cl)cc23)c1F [PLX4720] (first compound 0.02 µM, partner dose 0.4 µM)	46	65.6	87.1	84.4	84.1	61.9	68.8	80.2	66.2	74.5
Cc1cc(Nc2cc(N3CCN(C)CC3)nc(/C=C/c3ccccc3)n2)n[nH]1 + CO[C@@H]1[C@H](N(C)C(=O)c2ccccc2)C[C@H]2O[C@]1(C)n1c3ccccc3c3c4c(c5c6ccccc6n2c5c31)C(=O)NC4 [Midostaurin] (first compound 0.2 µM, partner dose 0.4 µM)	56.2	80.2	79.4	67.2	70.9	80.2	82.4	62.7	44.2	80.3
Cc1cn(-c2cc(NC(=O)c3ccc(C)c(Nc4nccc(-c5cccnc5)n4)c3)cc(C(F)(F)F)c2)cn1 [nilotinib] + O=S(=O)(c1ccccc1)N(CC(F)(F)F)c1ccc(C(O)(C(F)(F)F)C(F)(F)F)cc1 [T0901317] (first compound 1 µM, partner dose 7 µM)	62.6	99.2	85.8	96.1	118	74.8	80.3	75.9	69.6	83.4
COc1ccc(C2=N[C@@H](c3ccc(Cl)cc3)[C@@H](c3ccc(Cl)cc3)N2C(=O)N2CCNC(=O)C2)c(OC(C)C)c1 [Nutlin-3] + Cn1cc(/C=C2\C(=O)Nc3cccnc32)c2ccccc21 [GW441756] (first compound 0.5 µM, partner dose 2 µM)	75.7	89.2	96.3	82.3	98.5	79	89.2	109	111	80.5
COc1ccc(C2=N[C@@H](c3ccc(Cl)cc3)[C@@H](c3ccc(Cl)cc3)N2C(=O)N2CCNC(=O)C2)c(OC(C)C)c1 [Nutlin-3] + O=C(O)[C@@H]1[O][Sb](=[O])([O][Sb]2(=[O])[O][C@H]([C@H](O)CO)[C@H](O)[C@H](C(=O)O)[O]2)[O][C@H]([C@H](O)CO)[C@@H]1O [stibogluconate] (first compound 0.5 µM, partner dose 10 µM)	68.8	77.9	119	64.9	82.4	84.3	84.4	85.5	106	32.9
COc1ccc(C2=N[C@@H](c3ccc(Cl)cc3)[C@@H](c3ccc(Cl)cc3)N2C(=O)N2CCNC(=O)C2)c(OC(C)C)c1 [Nutlin-3] + NC1(c2ccc(-c3nc4ccn5c(=O)[nH]nc5c4cc3-c3ccccc3)cc2)CCC1 [MK2206] (first compound 0.5 µM, partner dose 2 µM)	75.2	85.2	88.1	61.5	50.3	77	92.2	80.2	106	68.2
Cn1c(=O)n(-c2ccc(C(C)(C)C#N)cc2)c2c3cc(-c4cnc5ccccc5c4)ccc3ncc21 + CO[C@@H]1[C@H](N(C)C(=O)c2ccccc2)C[C@H]2O[C@]1(C)n1c3ccccc3c3c4c(c5c6ccccc6n2c5c31)C(=O)NC4 [Midostaurin] (first compound 0.02 µM, partner dose 0.4 µM)	55.3	72.7	62.9	76.5	64.8	55.9	60.7	48.5	44.5	60.9
Cn1c(=O)n(-c2ccc(C(C)(C)C#N)cc2)c2c3cc(-c4cnc5ccccc5c4)ccc3ncc21 + COc1ccc(Cl)c(Nc2nc3ccccc3nc2NS(=O)(=O)c2cccc(NC(=O)C(C)(C)N)c2)c1 [XL147] (first compound 0.02 µM, partner dose 4 µM)	58.5	65.4	64.2	92.8	65.1	54.7	63	72.5	72.4	83.4
COc1ccc(C2=N[C@@H](c3ccc(Cl)cc3)[C@@H](c3ccc(Cl)cc3)N2C(=O)N2CCNC(=O)C2)c(OC(C)C)c1 [Nutlin-3] + COc1cc(Nc2ncc(F)c(Nc3ccc4c(n3)NC(=O)C(C)(C)O4)n2)cc(OC)c1OC [Tamatinib] (first compound 0.5 µM, partner dose 2 µM)	62.1	79.3	71.8	54.5	17.2	83.4	88.2	65.2	57.7	62.6
Cc1cn(-c2cc(NC(=O)c3ccc(C)c(Nc4nccc(-c5cccnc5)n4)c3)cc(C(F)(F)F)c2)cn1 [nilotinib] + Nc1nc(F)nc2c1ncn2[C@@H]1O[C@H](CO)[C@@H](O)[C@@H]1O [fludarabine] (first compound 1 µM, partner dose 1 µM)	74.1	57.8	56.1	102	142	64.6	83.6	82.8	56.8	67.6
CC(C)C[C@H](NC(=O)[C@H](Cc1ccccc1)NC(=O)c1cnccn1)B(O)O [Bortezomib] + Oc1cc(-c2nc(-c3ccccc3)[nH]c2-c2ccncc2)ccc1Cl [L779450] (first compound 0.005 µM, partner dose 1 µM)	0.633	21.8	11.3	8.37	32.2	38.1	7.26	7.58	7.23	9.88
